Reference: the supplement of paper PMC11876631
Positions count from the first letter of the chain named. Numbers in names are those of the source. ± gives the standard deviation of the averaged measurements. Laboratory Escherichia coli strains with one amino-acid change in an essential protein, pooled on minimal glucose agar with carbenicillin or gentamicin at twice the control MIC (plus kanamycin and chloramphenicol for the plasmids), 48 h. Fold change of barcode share against drug-free plates; higher = less susceptible. Active = above 20 in both replicates (the paper's putatively resistant). '<' = one read or none on drug, '>' = one read or none on a drug-free plate. Shares are relative, so most strains fall below 1 when a few take over. Listed are strains with at least 15 reads on both drug-free plates, and hits; most hits rest on fewer reference reads. Replicate rank correlation about 0.5. Edits are read from barcodes.

B1: metL M137P (protein)
chain: MSVIAQAGAKGRQLHKFGGSSLADVKCYLRVAGIMAEYSQPDDMMVVSAAGSTTNQLINWLKLSQTDRLSAHQVQQTLRRYQCDLISGLLPAEEADSLISAFVSDLERLAALLDSGINDAVYAEVVGHGEVWSARLPSAVLNQQGLPAAWLDAREFLRAERAAQPQVDEGLSYPLLQQLLVQHPGKRLVVTGFISRNNAGETVLLGRNGSDYSATQIGALAGVSRVTIWSDVAGVYSADPRKVKDACLLPLLRLDEASELARLAAPVLHARTLQPVSGSEIDLQLRCSYTPDQGSTRIERVLASGTGARIVTSHDDVCLIEFQVPASQDFKLAHKEIDQILKRAQVRPLAVGVHNDRQLLQFCYTSEVADSALKILDEAGLPGELRLRQGLALVAMVGAGVTRNPLHCHRFWQQLKGQPVEFTWQSDDGISLVAVLRTGPTESLIQGLHQSVFRAEKRIGLVLFGKGNIGSRWLELFAREQSTLSARTGFEFVLAGVVDSRRSLLSYDGLDASRALAFFNDEAVEQDEESLFLWMRAHPYDDLVVLDVTASQQLADQYLDFASHGFHVISANKLAGASDSNKYRQIHDAFEKTGRHWLYNATVGAGLPINHTVRDLIDSGDTILSISGIFSGTLSWLFLQFDGSVPFTELVDQAWQQGLTEPDPRDDLSGKDVMRKLVILAREAGYNIEPDQVRVESLVPAHCEGGSIDHFFENGDELNEQMVQRLEAAREMGLVLRYVARFDANGKARVGVEAVREDHPLASLLPCDNVFAIESRWYRDNPLVIRGPGAGRDVTAGAIQSDINRLAQLL
B2: metL L432P (protein)
chain: B1 chain with P137M, L432P
B3: metL L432Q (protein)
chain: B1 chain with P137M, L432Q
B4: metL L432A (protein)
chain: B1 chain with P137M, L432A
B5: metL L432W (protein)
chain: B1 chain with P137M, L432W
B6: metL V462A (protein)
chain: B1 chain with P137M, V462A
B7: metL L432D (protein)
chain: B1 chain with P137M, L432D

What follows are proteins tested against Escherichia coli (laboratory strain) (assay: barcode share on antibiotic plates over drug-free plates; higher = less susceptible). Details: antibiotic: carbenicillin; 2× MIC (3.1 µg/mL).
Method: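 A pool of E. coli strains, each edited to carry one amino-acid change in an essential protein, was grown for 48 h on minimal glucose agar with or without antibiotic; strain barcodes were sequenced; mean of two replicates.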

Protein	fold change of barcode share
B1	0.476 ± 0.064
B2	0.29 ± 0.06
B3	0.706 ± 0.31
B4	0.304 ± 0.045
B5	0.281 ± 0.096
B6	0.406 ± 0.019
B7	0.289 ± 0.012

Same assay, conditions: antibiotic: gentamicin; 2× MIC (MIC 0.45 µg/mL)

Protein	fold change of barcode share
B1	0.00597 ± 0.004
B2	0.029 ± 0.029
B3	0.00678 ± 0.005
B4	0.00658 ± 0.0044
B5	0.00352 ± 0.00085
B6	0.00802 ± 0.0036
B7	0.00889 ± 0.0069
